Laboratory results: article PMC7819943, “Rice protein-binding microarrays: a tool to detect cis-acting elements near promoter regions in rice”
The list shows a part of the results.

Molecular target: T1, OsWOX13 (Oryza sativa, UniProt Q5QMM3 1-267)
T1 sequence: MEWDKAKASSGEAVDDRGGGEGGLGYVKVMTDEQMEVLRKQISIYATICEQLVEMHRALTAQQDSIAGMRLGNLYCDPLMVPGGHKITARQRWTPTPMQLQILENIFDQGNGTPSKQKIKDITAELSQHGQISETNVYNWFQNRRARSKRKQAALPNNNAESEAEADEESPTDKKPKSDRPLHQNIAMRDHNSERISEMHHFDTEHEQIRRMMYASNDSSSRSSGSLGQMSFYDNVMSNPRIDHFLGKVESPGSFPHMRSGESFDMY
Assay: protein-binding microarray (RPBM); PBS, 2% BSA, 51.3 ng/ul salmon testes DNA, 50 uM zinc acetate, 200 nM TF, 25 C, 1 h; high values mean tight binding
Settings: protein: recombinant; tags: N-terminal polyhistidine and DsRed monomer fusion (pET32a); label: CyDye5-dUTP incorporated in the synthesized complementary strand; 3' TTTTT single-stranded linker to array surface; dsDNA, one strand shown
Procedure, shortened: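 Polyhistidine-tagged DsRed fusions of transcription factors, joined at the N-terminus, were expressed in E. coli BL21-CodonPlus and isolated on Ni–NTA. They were incubated at 200 nM for 1 h at 25 °C on a custom Agilent array, double-stranded and BSA-blocked, in PBS with 2% BSA, salmon testes DNA and 50 µM zinc acetate. The binding signal is per-feature fluorescence intensity (arbitrary units) read on an Axon 4000B scanner after washing.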

| Sequence | binding signal |
| --- | --- |
| AATACCACAAATTAATCAGTCAAAGCATAAAACTAAAAGGCGGAGTCACCTAGTGCAG | 4910 fluorescence intensity (a.u.) |
| TTATTGTAATTTACTGAAATGTTGGTCAAATTAAGTCAAGCGGAGTCACCTAGTGCAG | 8320 fluorescence intensity (a.u.) |
| ATGATAGATTTCCCGGCCCAATAACCCTCACCCCAGGTGACGGAGTCACCTAGTGCAG | 5160 fluorescence intensity (a.u.) |
| GCTATTTCTCTTTGCCAATCACTTCCCCTTTCTTTTGTGACGGAGTCACCTAGTGCAG | 4260 fluorescence intensity (a.u.) |
| TGTTAGATGATAAAACATGATTAACACTTTATGCGTGACTCGGAGTCACCTAGTGCAG | 8410 fluorescence intensity (a.u.) |
| TTTTGATCATCCATTTTGTCTATTATCTGTGTCTAACTAACGGAGTCACCTAGTGCAG | 5580 fluorescence intensity (a.u.) |
| TAAGACTAATTATTCTTTTAGTAATAGACGACGTACTCGCCGGAGTCACCTAGTGCAG | 22300 fluorescence intensity (a.u.) |
| GGGATTGGACAGGTCTCACGATTTCACAAGTGCGAACGGGCGGAGTCACCTAGTGCAG | 5160 fluorescence intensity (a.u.) |
| GGCTTCAGATTATTGATTTTAAGCGAGAAAACACTCTTACCGGAGTCACCTAGTGCAG | 3640 fluorescence intensity (a.u.) |
| AGCAACTAATTGGTCTACTCGATCTCTCCATCTTTTGGCCCGGAGTCACCTAGTGCAG | 29000 fluorescence intensity (a.u.) |
| AAAATTGAAATTTTCAACATTAAATTTGGATTAGATTTTGCGGAGTCACCTAGTGCAG | 19200 fluorescence intensity (a.u.) |
| AGGTCTTGATTACCAAGGGAAATTGTTTACACTAAACCTGCGGAGTCACCTAGTGCAG | 33400 fluorescence intensity (a.u.) |
| GGTAATTTGTTTCTCCATCTTTCTTTCATTAGTGCTTGACCGGAGTCACCTAGTGCAG | 26100 fluorescence intensity (a.u.) |
| ATGTTCCAAATTAATCTGACAAGAGAGCAACAATCGTTGCCGGAGTCACCTAGTGCAG | 3780 fluorescence intensity (a.u.) |
| GAGTACAGATGAAATTTGTAGAAATTGGAATGGTCATGTACGGAGTCACCTAGTGCAG | 3810 fluorescence intensity (a.u.) |
| CCAAATGATTAATTTGGAGGACTTATTTGGACGTTTTGAACGGAGTCACCTAGTGCAG | 42300 fluorescence intensity (a.u.) |
| TATAATTTAGAAAATAACAATGTATTCAATATATGGTTAACGGAGTCACCTAGTGCAG | 7400 fluorescence intensity (a.u.) |
| CTTTTAAAGGTGATTGATATTATTCCCTCCCTACCTATAGCGGAGTCACCTAGTGCAG | 27200 fluorescence intensity (a.u.) |
| CCTTAACTTGTCACTGATTACGAAATCGTCCTCCAACCACCGGAGTCACCTAGTGCAG | 30500 fluorescence intensity (a.u.) |
| AAAACTGACTGCAGAAATTGATTCAACCCAGTAAGGCCAGCGGAGTCACCTAGTGCAG | 32400 fluorescence intensity (a.u.) |
| CCACAAGTAATTTGAAACAGATATACTTCCAGCTATGCATCGGAGTCACCTAGTGCAG | 5390 fluorescence intensity (a.u.) |

| Sequence | binding signal |
| --- | --- |
| ATATTTTAAATAGTACTAAATTATTCTATAAATTTGGTCACGGAGTCACCTAGTGCAG | 4350 fluorescence intensity (a.u.) |
| GATCTAAACATGGCCTTAATTTATCGTCATAATTAAATGACGGAGTCACCTAGTGCAG | 5690 fluorescence intensity (a.u.) |
| CACTAATTACTTTCGCATCCTACGTGCATTTACTTAATCCCGGAGTCACCTAGTGCAG | 34000 fluorescence intensity (a.u.) |
| CCCAATGATTAATGTCTTAATCACATTGATTAGCAACTAACGGAGTCACCTAGTGCAG | 30300 fluorescence intensity (a.u.) |
| TATATGACTCCAGATTGATTCATCACGGACATCGTGAAGACGGAGTCACCTAGTGCAG | 7570 fluorescence intensity (a.u.) |
| TCAATTACAGTCAAATGGATAATAAATGCATCTTGTTGATCGGAGTCACCTAGTGCAG | 3240 fluorescence intensity (a.u.) |
| ATATATGCATAGTTAATTGGTTATTATATGTTGTACTGTCCGGAGTCACCTAGTGCAG | 17700 fluorescence intensity (a.u.) |
| AAATCCCATAACAATCAATCATGCTGTGCCTGTGCTTAACCGGAGTCACCTAGTGCAG | 20200 fluorescence intensity (a.u.) |
| CTTATTCACTTGTGATTGTGATGATTAGCGAACAGAGTTGCGGAGTCACCTAGTGCAG | 18700 fluorescence intensity (a.u.) |
| AATAGATTACTCCACTATTTAGTAAGTACTCCCGTTGTTTCGGAGTCACCTAGTGCAG | 3830 fluorescence intensity (a.u.) |
| AAAATACTGACTGGATTGTCATACGTGTGCCACGTTGGCCCGGAGTCACCTAGTGCAG | 4630 fluorescence intensity (a.u.) |
| GACATTTGTGCCACTTGGCATGAATCTAATTTAACATTCTCGGAGTCACCTAGTGCAG | 46300 fluorescence intensity (a.u.) |
| TAAGCAATTACAGTAACACACTATGTTACTATAAAACATGCGGAGTCACCTAGTGCAG | 4780 fluorescence intensity (a.u.) |
| TTCTCATAAATTTAAGGTGAAATGTCCATTTTGTCCATACCGGAGTCACCTAGTGCAG | 3740 fluorescence intensity (a.u.) |
| CATAGACCATTTCATTTGATTAGCACTCCAAATAGACACACGGAGTCACCTAGTGCAG | 11200 fluorescence intensity (a.u.) |
| CATGATAGATCAGGCAGAGAGCAGATCAGAGCAAGCATGTCGGAGTCACCTAGTGCAG | 11800 fluorescence intensity (a.u.) |
| CAACCAATCACACCCCAAGCTGAGCAAATACTCCACGAAACGGAGTCACCTAGTGCAG | 5790 fluorescence intensity (a.u.) |
| AATAAAATAAATGATCAAATGAATTATGAAAACTCGTGACCGGAGTCACCTAGTGCAG | 5260 fluorescence intensity (a.u.) |
| TCTCTCATCAATTGGGTTGATATTATATTGGCAGGGCCAGCGGAGTCACCTAGTGCAG | 4760 fluorescence intensity (a.u.) |
| ATGTTTGGAAATTAATTATAAATATTAAACGTAGACTATTCGGAGTCACCTAGTGCAG | 9050 fluorescence intensity (a.u.) |
| GTGAAGATTTAATTGTAACGAAGACAATAGTGTAATTGGACGGAGTCACCTAGTGCAG | 16400 fluorescence intensity (a.u.) |
